The values below come from publication PMC9860497.

These are yes or no findings as the source states them, for the method shown. In cells and extracts the contact can be indirect. Some binding calls cover weakened binding; strength is not graded here. Where a sequence is shown, tags or fusion partners need not be part of it.

The labels stand for the following.
B1: HA-tagged TMCC3-D1 (mutant deleting almost C-terminal half from TMCC3-N) (domain or fragment, UniProt Q8R310 1-210)
chain: MPGSDTALTVDRTYSDPGRHHRCKSRVDRHDMNTLSLPLNIRRGGSDTNLNFDVPDGILDFHKVKLNADSLRQKILKVTEQIKIEQTSRDGNVAEYLKLVSSADKQQAGRIKQVFEKKNQKSAHSIAQLQKKLEQYHRKLREIEQNGVTRSSKDISKDSLKEIHHSLKDAHVKSRTAPHCLESSKSSMPGVSLTPPVFVFNKSREFANLI
modifications: phosphoserine at 15 (detected by the anti-phospho-14-3-3 binding motif pAb)
B2: HA-tagged TMCC3-D2 (mutant deleting the first 89 amino acids from TMCC3-D1) (domain or fragment, UniProt Q8R310 90-210)
chain: DGNVAEYLKLVSSADKQQAGRIKQVFEKKNQKSAHSIAQLQKKLEQYHRKLREIEQNGVTRSSKDISKDSLKEIHHSLKDAHVKSRTAPHCLESSKSSMPGVSLTPPVFVFNKSREFANLI
B3: HA-tagged N-terminal fragment of TMCC3 encompassing the large cytoplasmic region (domain or fragment, UniProt Q8R310 1-411)
chain: MPGSDTALTVDRTYSDPGRHHRCKSRVDRHDMNTLSLPLNIRRGGSDTNLNFDVPDGILDFHKVKLNADSLRQKILKVTEQIKIEQTSRDGNVAEYLKLVSSADKQQAGRIKQVFEKKNQKSAHSIAQLQKKLEQYHRKLREIEQNGVTRSSKDISKDSLKEIHHSLKDAHVKSRTAPHCLESSKSSMPGVSLTPPVFVFNKSREFANLIRNKFGSADNIAHLKNSLEEFRPEASPRAYGGSATIVNKPKYGSDDECSSGTSGSADSNGNQSFGAGGTSTLDSQGKIAKIMEELREIKVTQTQLAEDIEALKVQFKREYGFISQTLQEERYRYERLEDQLHDLTELHQHETANLKQELASAEEKVAYQAYERSRDIQEALESCQTRISKLELHQQEQQTLQTDAVNAKVLL
B4: HA-tagged TMCC3-D1-S15/25/46A (domain or fragment, UniProt Q8R310 1-210)
chain: MPGSDTALTVDRTYADPGRHHRCKARVDRHDMNTLSLPLNIRRGGADTNLNFDVPDGILDFHKVKLNADSLRQKILKVTEQIKIEQTSRDGNVAEYLKLVSSADKQQAGRIKQVFEKKNQKSAHSIAQLQKKLEQYHRKLREIEQNGVTRSSKDISKDSLKEIHHSLKDAHVKSRTAPHCLESSKSSMPGVSLTPPVFVFNKSREFANLI
B5: HA-tagged TMCC3-D1-S15A (domain or fragment, UniProt Q8R310 1-210)
chain: MPGSDTALTVDRTYADPGRHHRCKSRVDRHDMNTLSLPLNIRRGGSDTNLNFDVPDGILDFHKVKLNADSLRQKILKVTEQIKIEQTSRDGNVAEYLKLVSSADKQQAGRIKQVFEKKNQKSAHSIAQLQKKLEQYHRKLREIEQNGVTRSSKDISKDSLKEIHHSLKDAHVKSRTAPHCLESSKSSMPGVSLTPPVFVFNKSREFANLI

For one assay, the target named is T1, FLAG-tagged 14-3-3γ (mouse) (UniProt P61982).
T1 sequence: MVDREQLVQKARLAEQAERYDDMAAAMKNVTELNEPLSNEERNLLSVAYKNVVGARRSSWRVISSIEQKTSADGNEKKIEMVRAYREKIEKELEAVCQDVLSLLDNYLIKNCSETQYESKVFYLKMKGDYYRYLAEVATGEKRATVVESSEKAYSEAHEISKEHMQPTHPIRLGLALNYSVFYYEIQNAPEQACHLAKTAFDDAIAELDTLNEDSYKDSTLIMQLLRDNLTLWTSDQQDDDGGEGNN
The assay can be described thus: co-IP; preliminary Co-IP analysis, data not shown; cells treated with serum depletion or an ER stressor.
B1: the binding entry is on record as “binds”.

In another assay the target is T1, FLAG-tagged 14-3-3γ (mouse). The assay can be described thus: co-IP; HEK293 cells co-transfected with HA-TMCC3 fragments and FLAG-14-3-3γ; Triton X-100 extracts (buffer A: 20 mM Tris-HCl pH7.5, 150 mM NaCl, 2 mM MgCl2, 1% Triton X-100); immunoprecipitation with mouse anti-Flag mAb, Protein G Sepharose; blot with anti-HA mAb and anti-Flag pAb.
On to B2, for which the binding result was “no binding”.

In the case of B3, the binding result was “binds”.

For B1, the binding entry is on record as “binds”.

On to B4, for which the binding result is “binds weakly”.

For B5, the binding entry is listed as “binds weakly”.
